# Data as given in PubChem BioAssay AID485294 (National Center for Advancing Translational Sciences (NCATS), 2010).
# Hit rate of the full screen: of about 370,000 compounds, about 150 (0.041%) were called active. This list was built around the results that the source calls inconclusive (neither active nor inactive); the mix of calls is not that of the screen. Calls come from the whole dose curve; as a rule, active = well fitted inhibition curve with a large enough effect; inconclusive = small, poorly fitted or top-dose-only effect; inactive = flat fitted curve, though single readings scatter. Potencies of inconclusive entries are left out as doubtful fits.
# Molecular target: Beta-lactamase (Escherichia coli (strain K12)) (UniProt P00811)
# UniProt P00811, sequence (P00811 whole entry, looked up): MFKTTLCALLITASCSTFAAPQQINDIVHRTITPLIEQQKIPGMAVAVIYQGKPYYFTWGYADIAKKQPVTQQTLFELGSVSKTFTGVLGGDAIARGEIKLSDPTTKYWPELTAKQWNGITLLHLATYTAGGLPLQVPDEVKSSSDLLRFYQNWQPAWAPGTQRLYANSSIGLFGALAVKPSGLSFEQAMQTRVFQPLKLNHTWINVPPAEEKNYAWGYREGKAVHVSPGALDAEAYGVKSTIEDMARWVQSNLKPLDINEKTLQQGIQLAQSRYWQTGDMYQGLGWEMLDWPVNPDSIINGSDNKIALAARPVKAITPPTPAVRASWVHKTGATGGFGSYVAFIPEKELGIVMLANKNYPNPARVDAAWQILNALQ
# Experiment: qHTS Inhibitors of AmpC Beta-Lactamase (assay with detergent); note: nearly all actives have a fitted effect of over 25% in size
# Conditions: AmpC hydrolysis of nitrocefin, absorbance 480 nm, 0.01% Triton; series mostly up to 114 µM
# In short: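 AmpC (5.3 nM in the dispensed reagent) in 20 mM phosphate pH 7.0 with 0.01% (detergent screen) or 0.0001% Triton X-100 was preincubated with compounds for 15 min at room temperature. Nitrocefin was then added from an 800 uM solution, and hydrolysis was followed at 480 nm.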
# Potency is the fitted concentration of half-maximal effect; tags give direction and shape of the fitted curve.
row,SMILES,Potency
1,Cc1cc(Br)ccc1NC(=O)c1ccc(NS(=O)(=O)c2c(C)noc2C)cc1,inactive
2,COc1cccc(C(c2nnnn2C(C)(C)C)N2CCN(C3CCCCC3)CC2)c1OC (stereo not given),"inconclusive [inhibitor, partial curve]"
3,COc1cc(C2C(C#N)=C(N)OC3=C2C(=O)CCC3)cc(OC)c1OC(=O)N1CCOCC1 (stereo not given),"inconclusive [inhibitor, full curve, poor fit]"
4,O=C(NC1CCN(C(=S)NCc2ccco2)CC1)NC12CC3CC(CC(C3)C1)C2,inactive
5,Cc1cccc(CCNC(=O)CCNC(=O)Cn2ccc3ccccc3c2=O)c1,"inconclusive [inhibitor, full curve, poor fit]"
6,O=C(O)CC/C(=C\c1ccc(N2CCCC2)c([N+](=O)[O-])c1)c1nc2ccccc2s1,"inconclusive [inhibitor, single point]"
7,Cc1ccc(C2OC3=C(C(=O)CC(C)(C)C3)C(N)=C2C#N)o1 (stereo not given),"inconclusive [inhibitor, full curve]"
8,NC(=O)c1cccn1Cc1cccc(Cl)c1,"inconclusive [inhibitor, full curve, poor fit]"
9,COCCOC(=O)C1=C(C)N=C2SCCC(=O)N2C1c1cccc(Br)c1 (stereo not given),"inconclusive [inhibitor, single point]"
10,Cc1noc(C)c1C(=O)Nc1nc2ccccc2s1,inactive
11,CCOC(=O)c1c(NC(=O)c2cccs2)sc(C)c1CC,"inconclusive [inhibitor, full curve, poor fit]"
12,CC1=CC2=NC(=O)CC(C)(C(=O)N(CC(=O)NC3CCCC3)Cc3ccc(Cl)cc3)N2C=C1 (stereo not given),"inconclusive [inhibitor, full curve, poor fit]"
13,O=C(CN1CC(c2ccccc2)CC1=O)OCc1cccc(Br)c1 (stereo not given),"inconclusive [inhibitor, full curve, poor fit]"
14,CCCOc1ccc(N2C(=O)CC(N(O)c3ccccc3)C2=O)cc1 (stereo not given),"inconclusive [inhibitor, full curve]"
15,CC(C)Sc1ncnc2c1oc1ccccc12,inactive
16,O=S(=O)(c1cccc(C(F)(F)F)c1)N1CCN(c2nnnn2-c2ccccc2)CC1,inactive
17,O=C(COC(=O)C1CC(=O)N(Cc2ccco2)C1)c1ccc(OC(=O)c2ccco2)cc1 (stereo not given),"inconclusive [inhibitor, single point]"
18,Cc1noc(C)c1COC(=O)c1cccc(S(=O)(=O)N2c3ccccc3CC2C)c1 (stereo not given),inactive
19,Cc1ccccc1N1C(=O)NC(=O)/C(=C\c2cnn(-c3ccccc3)c2)C1=O,"inconclusive [inhibitor, partial curve, poor fit]"
20,CCCn1c(N)c(C(=O)CSc2nnc(C3CC3)n2Cc2ccccc2)c(=O)n(C)c1=O,inactive
21,O=C(O)CC(C(=O)OCCOc1ccccc1)N1CCOCC1 (stereo not given),"inconclusive [inhibitor, single point]"
22,COC(=O)c1c(NC(=O)Nc2ccc(Cl)cc2)sc(C)c1C,"inconclusive [inhibitor, single point]"

row,SMILES,Potency
1,COCCCn1c(-c2ccsc2)nc2c1c(=O)[nH]c(=O)n2Cc1ccccc1,"inconclusive [inhibitor, full curve, poor fit]"
2,COc1ccccc1NS(=O)(=O)c1cc(C(=O)NCc2cccnc2)ccc1C,"inconclusive [inhibitor, partial curve]"
3,O=C1OC2(CCCCC2)CC2=C1C1O[C@](c3ccsc3)(Cc3ccccc31)O2,"inconclusive [inhibitor, partial curve, poor fit]"
4,COC(=O)CSc1nnc(C2COc3ccccc3O2)n1-c1ccccc1 (stereo not given),"inconclusive [inhibitor, single point]"
5,Cc1ccc(C2C(C#N)=C(N)SC(N)=C2C#N)cc1,"inconclusive [inhibitor, partial curve]"
6,Cc1ccc(C)c(NC(=O)CN(C)C(=O)CCN2C(=O)c3ccccc3C2=O)c1,inactive
7,CCOC(=O)/C(C#N)=C/c1cn(CCC(=O)O)nc1-c1cccc(Br)c1,"inconclusive [inhibitor, single point]"
8,O=C(NCCN1CCCCC1)c1ccc2c(c1)OCCO2,"inconclusive [inhibitor, partial curve, poor fit]"
9,COc1ccc(C(=O)Nc2ccc3c(c2)nc(CN2CCCC2)n3C)cc1,"inconclusive [inhibitor, full curve, poor fit]"
10,Cc1ccc(-c2cc(N)n[nH]2)cc1,"inconclusive [inhibitor, single point]"
11,Cc1nc([N+](=O)[O-])nn1C12CC3CC(CC(Cl)(C3)C1)C2,"inconclusive [inhibitor, partial curve, poor fit]"
12,CCN(C(=O)CSc1ccc2ccccc2n1)C1CCS(=O)(=O)C1 (stereo not given),"inconclusive [inhibitor, partial curve, poor fit]"
13,CCN(CC)c1ccc(S(=O)(=O)N2CCOCC2)cc1NC(=O)CSc1nncs1,"inconclusive [inhibitor, full curve, poor fit]"
14,Cc1ccc(S(=O)(=O)N2CCCC2C(=O)Nc2cc(C)on2)cc1 (stereo not given),inactive
15,O=C(NCCOc1ccccc1F)c1cc(F)c(F)cc1Cl,"inconclusive [inhibitor, partial curve, poor fit]"
16,O=C(C[C@@H]1NS(=O)(=O)OC2CCCCC21)c1ccccc1 (stereo not given in full),"inconclusive [inhibitor, partial curve, poor fit]"
17,CCOC(=O)c1c(NC(=O)CSc2nnc(Cc3ccccc3)o2)sc(C)c1C,"inconclusive [inhibitor, full curve, poor fit]"
18,COc1ccc(NC(=O)CN2CCC(Cc3ccccc3)CC2)cc1S(=O)(=O)N1CCOCC1,"inconclusive [inhibitor, full curve]"
19,COc1ccc(NC(=O)CNC(=O)C2CCCCC2)cc1,"inconclusive [inhibitor, full curve]"
20,Cc1ccc(OCC(=O)N2N=C(c3cccnc3)CC2(O)C(F)(F)F)cc1C (stereo not given),inactive
21,CCOc1ccccc1Nc1ncnc2c1cnn2-c1ccccc1,"inconclusive [inhibitor, full curve, poor fit]"
22,O=C(Nc1ccc(Cl)c(Cl)c1)c1ccccc1NC(=O)C1CC=CCC1C(=O)O (stereo not given),"inconclusive [inhibitor, single point]"

row,SMILES,Potency
1,Cc1ccc(-c2nnc3c4ccccc4c(C)nn23)cc1NC(=O)c1ccccc1Cl,inactive
2,CCOc1cccc(OCCCOc2ccccc2)c1,"inconclusive [inhibitor, full curve, poor fit]"
3,CCOC(=O)c1cc(S(=O)(=O)N2CCN(c3ccc(C)cc3C)CC2)[nH]n1,inactive
4,Cc1ccc(OCCNS(=O)(=O)c2cccs2)cc1,"inconclusive [inhibitor, full curve, poor fit]"
5,Clc1ccccc1/C=C/C=N/Nc1nc(N2CCOCC2)nc(N2CCOCC2)n1,"inconclusive [inhibitor, full curve]"
6,CCOCCCN(C(=O)Cn1nnc2ccccc21)C(C(=O)NCc1ccco1)c1ccncc1 (stereo not given),"inconclusive [inhibitor, full curve, poor fit]"
7,Cn1c(=O)c2c(nc(NCCCO)n2CCc2ccccc2)n(C)c1=O,"inconclusive [inhibitor, partial curve, poor fit]"
8,CCOc1ccc(NC(=O)c2[nH]c(C)c(C(C)=O)c2C)cc1,"inconclusive [inhibitor, full curve, poor fit]"
9,CSC1=NC(C)(C)C=C(/C=C/c2ccc(Cl)cc2Cl)N1,"inconclusive [inhibitor, partial curve, poor fit]"
10,CCOC(=O)c1ccc(CC(=O)c2ccc(O)cc2O)o1,inactive
11,Cc1ccc(NC(=O)CNc2ccc(OC(C)C)cc2)cc1,"inconclusive [inhibitor, partial curve, poor fit]"
12,COc1ccc(/C=C/C(=O)Oc2cccc(/C=N/NC(=O)c3cccc(F)c3)c2)cc1,"inconclusive [inhibitor, full curve, poor fit]"
13,CCN(CC)CCn1c2c(c(SCC(=O)Nc3cccc(C(C)=O)c3)nc1=O)CCCC2,inactive
14,COc1cc(C(=O)N2CCC(NC(=O)C(Cc3ccccc3)NC(C)=O)CC2)cc(OC)c1OC (stereo not given),"inconclusive [inhibitor, full curve, poor fit]"
15,O=C(c1ccco1)N1CCN(S(=O)(=O)c2cccs2)CC1,inactive
16,COc1ccc(OC)c(NC(=O)CN2C(=O)COc3ccc(C)cc32)c1,"inconclusive [inhibitor, partial curve, poor fit]"
17,O=C(N/N=C/c1ccccc1O)C1CC(=O)N(c2ccc(Cl)cc2)C1 (stereo not given),"inconclusive [inhibitor, full curve]"
18,OCCCc1cn(Cc2ccccc2)c2ccccc12,"inconclusive [inhibitor, partial curve, poor fit]"
19,CN=c1scc(-c2ccccc2F)n1/N=C/c1ccc[nH]1,inactive
20,COc1cccc(C2C(C(=O)OCc3ccccc3)=C(C)Nc3ncnn32)c1OC (stereo not given),"inconclusive [inhibitor, partial curve]"
21,OCCN(CCO)CC(O)Cn1c2ccccc2c2ccccc21 (stereo not given),"inconclusive [inhibitor, full curve, poor fit]"
